# Experimental data taken from the supplement of paper PMC11417369.
# ± gives the standard deviation of the averaged measurements. The list shows a part of the results.
# Test system: PfAP2-G AP2 domain (GST-tagged)
# Assay: gcPBM binding intensity (ln(normalized median fluorescence intensity)); higher = stronger DNA binding
# Method in brief: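 An Agilent 4 × 180k array of primer-extended double-stranded 36-bp intergenic genomic probes, with negative controls, was incubated for 1 h with GST-tagged P. falciparum DNA-binding domains expressed in E. coli. Alexa488 anti-GST antibody detected bound protein, scanned at 488 nm. Binding intensity is the highest Masliner-normalised natural-log median intensity across replicate spots of either probe orientation.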
row,Sequence,gcPBM binding intensity (ln)
1,AATCATAAAGAACATATAATATATATATATATATAT [CACACA_negctrl_site316],9.99 ± 0.76
2,TTTGTCATAAGCAATGCATGTAAGTTTCTGACATTA [TGCATGCA_site1007],9.64 ± 0.014
3,TGGGATAGATCATTTACACACACAAAAAAAAAAAAA [CACACA_site2140],9.93 ± 0.4
4,TGTATTACGAAAAAATGTACAGAAAAAGAAACAAAA [XGTACX_site2777],11.2 ± 0.76
5,AAAAACAACACAGATAAATTAACACACACACACATA [XGTACX_negctrl_site588],10.4 ± 0.47
6,AAATATAGTATTAAAACACACATTTATATAAAAAGG [CACACA_site1482],10.02 ± 0.028
7,TGAACTCATAGGAAAACACACATATGTGTAATATAT [CACACA_site4267],10.06 ± 0.092
8,AACAAAAAAACAAACACACACACACGCATATTTATA [CACACA_site7680],10.03 ± 0.049
9,CACGCATACAGACACACACACACACGGATATAAATA [CACACA_site6445],10.3 ± 0.37
10,TATATACTCAGACATACACACAAATAAAAAAACACC [CACACA_site5820],10.7 ± 0.47
11,TTATGTGATTTTAATTGTACATAAATATTTGTTAAC [XGTACX_site3489],11.1 ± 0.69
12,GGTTCATTTATATGGAGTACAAAAAATATGTATATA [XGTACX_site8209],11.4 ± 0.88
13,AAATAATATAAATACACACACACATATATAAATACA [CACACA_site4465],10.02 ± 0.057
14,ATATATATAATAAGTGGTACAAGTTATTCATTAAAT [XGTACX_site7063],11.3 ± 0.74
15,CAATAAATCGAAATCGTGCACGGACACATGCAGTAG,11.2 ± 0.71
16,TTTTTTTATACAATTTTATATATTAAATATTATAAT [CACACA_negctrl_site226],9.765 ± 0.049
17,AAAGAAAACGGACTTTGTACTTAAATATAATATAAA [XGTACX_site8585],11.2 ± 0.8
18,TAAAGTTATATATTATGTACATATTTGTATACATTT [XGTACX_site2516],11.2 ± 0.73
19,ACAAAAATATTATATTGTACATTATTAGTTCATATT [XGTACX_site6750],10.8 ± 0.48
20,TTTTTATATAAATAATGTACATTTGGTTTTATTATA [XGTACX_site2125],10.9 ± 0.43
21,AACACCCACAGACACACACACAAAAATGATTAAAAA [CACACA_site2433],10.3 ± 0.52
22,TATTTGTATAAATAAAAATAATATATATCAAATAAC [CACACA_negctrl_site218],9.77 ± 0.028

row,Sequence,gcPBM binding intensity (ln)
1,TATCAATTTTTCTGGCTATCCAATTAGGGGAAGCCA [CACACA_negctrl_site1045],9.78 ± 0.19
2,TGTGTGTGTTCATGGGTGCTTTAATACTATTATAGG [GTGCAC_site9465],10.7 ± 0.57
3,TATTATAAAAATATTCAGATACATTAACTTACTTTT [XGTACX_negctrl_site4],9.56 ± 0.28
4,TATTTGCTACATATATGTACTAAAAACTTTTTGCTT [XGTACX_site2362],11.1 ± 0.58
5,ATTTGCTCACAAGAAGCACACAAAAAAAGAAAAAAA [CACACA_site9338],10.1 ± 0.14
6,CAAAAAATTTGACGTAGTACTTAAAAAAAAAAAAAA [XGTACX_site4523],11.1 ± 0.89
7,AAGAAAATATAAAATGCACACTATAAATTGTATTTA [CACACA_site4257],9.83 ± 0.014
8,TAATTATATATATATGCATGTTATAATTTTTATTTT [TGCATGCA_site78],9.54 ± 0.014
9,ATATAAATAAACAGGTGTACTATAATGTTCATAGTA [XGTACX_site1553],11.2 ± 0.63
10,GGGAAAATATTTGGGTGTACAAACAAATTAGCTAGC [XGTACX_site6795],11.3 ± 0.95
11,TATGATTTCACATAATGTACTTGCTAATTCGTGAAT [XGTACX_site1408],11 ± 0.86
12,TCTTTAACAAGTTAAACACACATACATAAATACATA [CACACA_site5406],10.1 ± 0.35
13,TTATGTCATAAATGCACACATATACATTGTTTTGAT [CACACA_site646],9.945 ± 0.007
14,TTTTATGAATAATTATGTACATAACAAATGATATAT [XGTACX_site8318],11.2 ± 0.71
15,TACAAAAAAAAATAAAATACATATATATATATATAT [XGTACX_negctrl_site608],10.1 ± 0.73
16,CCCTATATAAATAGCTGTACATTTGAACATGTTCAG [XGTACX_site2187],11 ± 0.58
17,CATTTACATGCCAACATGCACTGAACAATCTTTATA [GTGCAC_site9797],9.98 ± 0.057
18,ACAAAACTTTTAAGAACACACAAAAATGTACTATCG [CACACA_site7245],10.9 ± 0.52
19,CAATAAAAATTAAAATGTACAAATAAATATAAATAT [XGTACX_site7265],10.8 ± 0.29
20,TTTACAGGAAAAAATACACACATTATTTTACCTTAT [CACACA_site2833],9.9 ± 0.071
21,AGTGTGCTCAGCTTAGCACAAATTGGAATACCATGT [CACACA_negctrl_site367],10.2 ± 0.14
22,ATGAATTATAAATATTCACACAATATTTTTCATATG [CACACA_site4484],9.88 ± 0.31

row,Sequence,gcPBM binding intensity (ln)
1,TTTTTTTCTTAAAGATGTACTTTTTAAAAATAATCT [XGTACX_site1429],11.4 ± 1
2,GTAGTAATAAATTAAAGTACAGAATATATTATACTA [XGTACX_site2809],11.2 ± 0.9
3,GAAAATGAAATCCTTGCATGTAAAATTAAAATAGAA [TGCATGCA_site569],9.77 ± 0.13
4,AAAAGGGAAATAAAATAAAAAAAGAAACATATATAG [CACACA_negctrl_site455],9.84 ± 0.23
5,GATTCTTCACCGTACTCACACATATATATATATATA [CACACA_site5665],11.1 ± 0.73
6,TCTTTTTTTTTTAAACGTACATTGCATTATCACGTA [XGTACX_site6873],11.2 ± 0.78
7,ATCCATTATTTTTGTTGTACGGGTAACTTTAAAAAG [XGTACX_site2226],11.3 ± 0.97
8,AGCTCTTGTCATTTTGCACACACACCCGTATAGGTT [CACACA_site3056],10.23 ± 0.035
9,ATTTTTTTATAAGAAAATTTCTAACGTTAAAAAAAA [CACACA_negctrl_site1367],9.9 ± 0.18
10,CAAACAAACAAATATACACACTTTTGTATAAAGTAA [CACACA_site5860],9.83 ± 0.057
11,TATAATTATATATATAGTACAGATTTGTTATGTTTA [XGTACX_site7724],10.8 ± 0.59
12,TAATTATATGTATACACACACATACATTTACATAAC [CACACA_site3238],10.2 ± 0.14
13,TTAATTTCTATATACGCATGTATGAATAAGATATTG [TGCATGCA_site202],9.99 ± 0.18
14,TATCTCATAGTATACACACACACACCCACCCATATA [CACACA_site1739],10.5 ± 0.28
15,AATATATATATATTCACACATAAAAAAGTAAAAAAA [CACACA_site5040],9.94 ± 0.014
16,CACACGCACGAACACACACACACACGCATATAAATA [CACACA_site6302],10.6 ± 0.52
17,ATTAAGACACATTGCACACGTGCACCCATAGAAAAA [CACACA_site408],10.7 ± 0.57
18,TATTTATTATTAAGATGTACATAAAACACTGAATAA [XGTACX_site4246],11.3 ± 0.79
19,GACCATATGAATAATGCACACGTTTTAAAATATTAA [CACACA_site5312],10.23 ± 0.028
20,TGAAAAAGGAAAAAAAAAAAAAAAAAAAAAACGAAA [GTGCAC_negctrl_site555],9.65 ± 0.11
21,ATAATAATATATATTGTACACACAAAATGGGAAAAA [CACACA_site8568],11.4 ± 0.67
22,TTTTAATTAAGACACACACACACATATAAATATGTA [CACACA_site7144],10.1 ± 0.17

row,Sequence,gcPBM binding intensity (ln)
1,TATCATTTCATATCAAGTACAAACATTTTACATATA [XGTACX_site5307],11 ± 0.62
2,TATATATATATAATAGTGCATAAATAAATATATAAA,9.99 ± 0.17
3,TAAAAAATAAAAATTGCACACTAAAAAATTACCCAC [CACACA_site5823],10.4 ± 0.38
4,TTGATTTTTATTTTTAAAATAAATAAATTTCAAATG [TGCATGCA_negctrl_site199],9.71 ± 0.11
5,TTTTTTTTTCTTTGGTGTACAATGTAATAGAAAATA [XGTACX_site227],11.4 ± 0.86
6,AAAAAAAACAAACACACACACAAATATTTATATATT [CACACA_site436],9.925 ± 0.035
7,TAAAAAGAAATGTAAAGTACAAATTTGAATAACATG [XGTACX_site7981],10.9 ± 0.45
8,AAAGAGAACAGAAGTACACACATGTTCTTTTAGTAA [CACACA_site5557],11.6 ± 0.96
9,ATATTCTGCTGTTTAGTGCAATTATGAAATTATGAT,9.98 ± 0.16
10,AGGAAAAAAGAAAAAACACACATAAATATATATATA [CACACA_site3085],9.77 ± 0.37
11,CATACAGACATACATACACACATACCTATAAATATA [CACACA_site6995],10.2 ± 0.26
12,AAATGAAATAAAATCATATATTTATAATTATTATAA [TGCATGCA_negctrl_site612],9.32 ± 0.26
13,ATATGTATTTATATATGTTTGATTTTTTTTTTTTTT [TGCATGCA_negctrl_site506],9.595 ± 0.007
14,GTTTTATTTTGTTTCTATTTGACACATGTGATTATT [CACACA_negctrl_site1246],10.09 ± 0.099
15,ATTCAATATATATACACACACACTTTTAATAATTAA [CACACA_site3770],10.1 ± 0.15
16,ATATGTATGTATGTATGTACTTATTTATTTATTAAT [XGTACX_site8018],11.4 ± 0.81
17,TACATAAATTAAAACACACACACACTAATAAAAAAA [CACACA_site8712],10.12 ± 0.057
18,TAGCTCGTTCGGAGCACACACATATATATATATATA [CACACA_site1948],10.6 ± 0.79
19,TTTTTTTTTGAATATTGTACATATATATTACTTTTA [XGTACX_site5520],10.9 ± 0.51
20,AAAAAATTATATAAATGTACATTTTGGCTAGACATG [XGTACX_site5977],10.8 ± 0.52
21,CATATATATAATTATTCACACAATAGTTAAAAGTAT [CACACA_site5302],9.93 ± 0.057
22,TTAAAAATAATATTATGTACTAAGAATAAATATATA [XGTACX_site3100],10.7 ± 0.52
